Source: ChEMBL document CHEMBL1157539, “Thousands of chemical starting points for antimalarial lead identification” (Nature, 2010)
In all, about 13,000 compounds were measured (“IFI”: median about 4, highest 2% from about 17 on). The list shows a part of the results.

test: GSK_TCMDC: Inhibition Frequency Index (IFI). The number of non-kinase HTS assays where a compound showed > 50 % inhibition, expressed as a percentage of the number of such assays in which the compound was tested (-0 is zero); type: functional

Going from Fc1ccc(-c2nc(NCc3cccc(C(F)(F)F)c3)nn2-c2cccc(C(F)(F)F)c2)cc1C(F)(F)F to O=C(Nc1cccc(-c2cccc(-c3nc4cc(C(F)(F)F)ccc4[nH]3)c2)c1)Nc1ccc(F)c(F)c1F, the IFI rises from 0% to 9.71%.

Compared with Oc1ccc(CNCCCCCCNCCc2ccc(Cl)cc2)cc1O, Oc1ccc(CCNCc2ccc(OCc3ccccc3)c(OCc3ccccc3)c2)cc1 is higher in IFI: 2.21% for the first, 5.41% for the second.

Compared with Cc1cccc2nc(-c3cccc(-c4cccc(CNCc5cccc(N)c5)c4)c3)[nH]c12, COC(=O)c1cccc(CNCc2ccc(-c3ccc(-c4nc5cccc(C)c5[nH]4)cc3)cc2)c1 is higher in IFI: 4.76% for the first, 5.88% for the second.

Going from COc1cc2nc(NCCc3ccccc3)nc(NCc3cc(C)no3)c2cc1OC to COc1ccc(CNc2nc(NCc3ccc(C(F)(F)F)cc3)c3cc(OC)c(OC)cc3n2)cc1OC, the IFI rises from 3.88% to 14.8%.

First: CCCCCCOc1ccc(C(=O)NCCCC2CCN(CCCCCNC(=O)C=Cc3ccc(Cl)c(Cl)c3)CC2)cc1
Second: O=C(/C=C/c1ccc(Cl)c(Cl)c1)NCCCCCN1CCCC(CNC(=O)c2sc3ccccc3c2Cl)C1 (stereo unspecified)
The IFI of the first is lower: 5.34% for the first, 6.11% for the second.

First: COc1nc2c(CCN3CCC(NCc4ccc5c(c4)NC(=O)CO5)CC3)c(Cl)cnc2cc1F
Second: COc1ccc(CNC2CCN(C)CC2)cc1-c1ccc(S(=O)(=O)NCc2ccccc2)c(C)c1
The IFI of the first is lower: 2.9% for the first, 9.52% for the second.

Compared with NC(=O)c1ccsc1NC(=O)CNC(c1ccccc1)c1ccc(Cl)cc1 (stereo unspecified), CCN(CC)Cc1cc(NC(=O)c2ccccc2O)ccc1Oc1ccc(Cl)cc1 is higher in IFI: 4.6% for the first, 5.52% for the second.

Going from COc1cc(C)nc2ccc(NC(=O)Nc3cccc4ccccc34)cc12 to Cc1cc(NC(=O)Nc2ccc(N(C)C)cc2)c2cc(Cl)ccc2n1, the IFI rises from 1.41% to 4.44%.

Compared with CCN(c1ccccc1)S(=O)(=O)c1ccc(NC(=O)c2cc(-c3cc(C)ccc3O)n[nH]2)cc1, Cc1ccc(O)c(-c2cc(C(=O)Nc3ccc(S(=O)(=O)N4CCCC(C)C4)cc3)[nH]n2)c1 (stereo unspecified) is higher in IFI: 1.05% for the first, 5.8% for the second.

CC1CCCCC1N(C)C1CCN(CCCNC(=O)C=Cc2ccc(Cl)cc2Cl)CC1 (stereo unspecified) and COc1c(C2CCN(CCCCNC(=O)C=Cc3ccccc3C(F)(F)F)CC2)ccc2c1CCCC2 are the same in IFI: 11.1% for the first, 11.1% for the second.

Going from COc1ccc2nccc([C@@H](O)CN3CCC(NC(=O)C(c4cc5ccccc5o4)N4CCC(Cc5ccccc5)CC4)CC3)c2c1 (stereo partly specified) to COc1ccc(CNC(=O)c2cc3c(=O)n4ccccc4nc3n(CCc3ccccc3)c2=N)cc1, the IFI rises from 3.47% to 4.27%.

Going from CC(C)C[C@H](NC(=O)c1ccc(OCCN2CCOCC2)cc1)C(=O)N[C@H](/C=N/NC(=O)OC(C)(C)C)CCc1ccccc1 to O=C(/C=C/c1ccc(CNCCN2CCOCC2)cc1)NCCc1ccccc1, the IFI falls from 5.45% to 0%.

Compared with CC(C)(C)c1ccc2nccc(Nc3cccc(O)c3)c2c1, O=C(Nc1cccc(C(F)(F)F)c1)NC1CCN(c2ccnc3cc(Cl)ccc23)CC1 is higher in IFI: -0% for the first, 4.76% for the second.

First: CN1CCCN(Cc2ccc(-c3ccc(NC(=O)c4ccc(Cl)cc4)cc3)cc2)CC1
Second: O=C(Nc1cccc(CN2CCCN(Cc3ccc(F)cc3)CC2)c1)c1ccc(Cl)c(Cl)c1
The IFI of the first is higher: 7.07% for the first, 6.12% for the second.

Compared with COc1ccc2c(=NN=C(C)c3ccccn3)cc(C)[nH]c2c1, CCn1c2ccccc2c2cc(C=NN=c3cc(C)[nH]c4ccccc34)ccc21 is higher in IFI: 4.96% for the first, 9.93% for the second.

Compared with N=C(N)NCCCC(=O)NCC(N)=O, O=C(/C=C/c1ccc(Cl)c(Cl)c1)NCCCCCN1CCCN(C(=O)Nc2cccc(C(F)(F)F)c2)CC1 is higher in IFI: 0.72% for the first, 8.61% for the second.

Going from Cn1c(=N)n(CC(=O)OCc2ccc(OCc3ccccc3)cc2)c2ccccc21 to Nc1nccc2ccc(-c3ccc(OCc4ccccc4)cc3)cc12, the IFI rises from 2.22% to 19.1%.

Going from CCCCCCN1CCN(Cc2cccc(NC(=O)c3ccc(Cl)c(Cl)c3)c2)CC1 to CCCN1CCN(CC(O)CNC(=O)Nc2ccc(Cl)cc2)CC1 (stereo unspecified), the IFI falls from 11.2% to -0%.

Compared with CC(C)Oc1ccc2c(c1)OC(c1ccccc1)(C(F)(F)F)NC2=O (stereo unspecified), CC(C)CCNCc1ccc(OCc2cccc(C(=O)Nc3ccccc3)c2)c(I)c1 is higher in IFI: 2.78% for the first, 10.9% for the second.

First: CC(C)CN(Cc1c(O)ccc2[nH]c(-c3ccc(F)cc3F)nc12)CC(C)C
Second: CC(C)(C)c1ccc(-c2nc3c(ccc4nc(N)nc(N)c43)[nH]2)cc1
The IFI of the first is lower: 0% for the first, 14.2% for the second.

Compared with CCc1cccc(-n2c(=O)c3cccnc3n2CC(=O)NCc2ccccc2Cl)c1, Cc1nc2ccccc2c(=O)n1NCc1ccc(Cl)c(Cl)c1 is higher in IFI: -0% for the first, 0.7% for the second.

Compared with O=[N+]([O-])c1ccc2nc(Nc3ccc(Cl)c(Cl)c3)c(Nc3ccc(Cl)c(Cl)c3)nc2c1, Cc1cc2nc(-c3ccc(C(=O)NCc4ccc(Cl)c(Cl)c4)cc3)[nH]c2cc1C is lower in IFI: 2.86% for the first, -0% for the second.

Compared with NCc1ccc(CNCc2cccc(-c3ccc(-c4nc5cc(C(F)(F)F)ccc5[nH]4)cc3)c2)cc1, O=C(CCc1c[nH]cn1)Nc1cccc(-c2ccc(-c3nc4ccccc4[nH]3)cc2)c1 is lower in IFI: 14.8% for the first, 5.26% for the second.

Compared with O=C(CCc1ccccc1)N[C@H](Cc1c[nH]c2ccccc12)C(=O)N1CCC(NCc2ccc3c(c2)Cc2ccccc2-3)CC1, CC(C)CNCc1ccc(-c2cccc(CN(C(=O)NCCc3ccccc3)C3CCN(Cc4ccccc4)CC3)c2)cc1 is lower in IFI: 8.76% for the first, 7.19% for the second.

First: CC12CN3CC(C)(CN(C1)C3c1cc(Br)ccc1O)C2O (stereo unspecified)
Second: Nc1nc(N)c2c(n1)CCc1cc(Br)ccc1-2
The IFI of the first is lower: -0% for the first, 2.9% for the second.

Compared with Cc1cc(OCCCN2CCCCC2)ccc1NC(=O)COc1ccc(Cl)cc1C(=O)c1cc(Cl)cc(C#N)c1, COc1c(C2CCN(CCCCNC(=O)c3ccc(-c4ccc(Cl)cc4)cn3)CC2)ccc2c1CCCC2 is higher in IFI: 7.14% for the first, 10.6% for the second.

Going from C=CC[C@H](C[C@H](O)[C@H](Cc1ccccc1)NC(=O)c1nn(-c2ccccc2)nc1C)C(=O)NC1CCCCC1 to CCNc1cc(C(=O)N[C@@H](Cc2ccccc2)[C@H](O)CNCCc2cccc3ccccc23)cc(N2CCCC2=O)c1, the IFI rises from -0% to 6.34%.

Compared with CC1CCN(CC[C@H]2CCCN2S(=O)(=O)c2cccc(NC(=O)c3cc4ccccc4s3)c2)CC1, O=S(=O)(Nc1cccc(CCN2CCCCC2CCN2CCCC2)c1)c1ccc2ccccc2c1 (stereo unspecified) is higher in IFI: 4.93% for the first, 13.1% for the second.

Going from Cc1cccc2nc(-c3cccc(-c4ccc(NC(=O)c5cccc(C(N)=O)c5)cc4)c3)[nH]c12 to Cc1cccc2nc(-c3ccc(-c4ccc(NC(=O)NC5CC5c5ccccc5)cc4)cc3)[nH]c12 (stereo unspecified), the IFI rises from 3.81% to 6%.

First: CCOC(=O)c1nc(-c2ccccc2)[nH]c1-n1nc(C)cc1C
Second: CCCc1cc(=O)[nH]c(-n2nc(C)cc2NC(=O)c2cc3ccccc3o2)n1
The IFI of the first is lower: 0% for the first, 11.5% for the second.

Compared with CN(C)c1ccc(C=Cc2nc(=O)c3ccccc3o2)cc1, CCCCCOc1ccc(C=NNc2nc(O)cc(-c3ccccc3)n2)cc1 is lower in IFI: 5.15% for the first, 0% for the second.

N#Cc1ccccc1C1CCN(C2CCC(Nc3cc(-c4cccnc4)ccn3)CC2)CC1 (stereo unspecified) and N#Cc1ccccc1C(=O)N(Cc1cncn1Cc1cccc(F)c1)CC1CC1 are the same in IFI: -0% for the first, -0% for the second.

Compared with CCCCNc1c(CC)c(C)c(C#N)c2nc3ccccc3n12, CCCCN(C(=O)c1ccccc1Cl)c1nnc(-c2ccccc2C)s1 is higher in IFI: 2.26% for the first, 4.92% for the second.

Compared with CS(=O)(=O)CCNCc1ccc(-c2ccc3c(Nc4ccc(Oc5ccccn5)cc4)ccnc3c2)o1, CN(CCS(C)(=O)=O)Cc1ccc(-c2ccc3ncnc(Nc4ccc(OCc5cccc(F)c5)c(Cl)c4)c3c2)o1 is higher in IFI: 3.7% for the first, 5.19% for the second.

Going from Cc1[nH]cnc1-c1cccc(NC(=O)c2cc3ccccc3s2)c1 to O=C(Nc1cccc(-c2csc(-c3nc4ccccc4[nH]3)c2)c1)c1ccoc1, the IFI falls from 3.51% to 2.75%.

Going from CCCCCCNC(=O)C1Cc2c([nH]c3ccc(Br)cc23)C2(CCN(Cc3ccccc3)CC2)N1 (stereo unspecified) to O=C(NCC1CC1)C1Cc2c([nH]c3ccc(Br)cc23)C2(CCN(CCc3ccccc3)CC2)N1 (stereo unspecified), the IFI falls from 8.45% to 5.59%.

First: CC[C@H](C)CNC(=O)c1cncc(-c2cccc(CN3CCC(N4CCCC4)CC3)c2)c1
Second: Cc1cccc2nc(-c3ccc(-c4ccc(CN5CCN(C6CCN(C)CC6)CC5)cc4)cc3)[nH]c12
The IFI of the first is lower: 1.64% for the first, 7.14% for the second.

Compared with O=C(Nc1ccc(N2CCN(Cc3ccccc3Cl)CC2)cc1)c1ccc([N+](=O)[O-])o1, CC(C)N1CCN(c2ccc(OCCCCN3CCN(c4cccc(Cl)c4Cl)CC3)c(C(F)(F)F)c2)CC1 is lower in IFI: 16% for the first, 14.6% for the second.

Going from CCCCCCn1c2c(c(=N)c3c1CCC3)CCC2 to O=C(CN1CCC2(CCC1=O)CC(=O)c1ccccc1O2)NCCN1CCOCC1 (stereo unspecified), the IFI falls from 3.57% to 0%.

First: CCOC(=O)NCCSC(C)(C)[C@H](NC(=O)[C@H](Cc1cc2ccccc2s1)[C@H](CC)N(O)C=O)C(=O)Nc1nccs1
Second: COc1ccccc1CCNc1nc(C)cc(N[C@@H](CC(C)C)C(=O)NCc2cccc(F)c2)n1
The IFI of the first is lower: 2.88% for the first, 4.88% for the second.

Going from CCc1cccc(C)c1-n1nc(-c2cc(C(C)(C)C)oc2C)cc1N to COc1cc2nc(N(C)Cc3cc4c(Cl)cccc4s3)nc(N)c2cc1OC, the IFI falls from 7.02% to 2.44%.

Compared with CC(CCc1ccccc1)NCC(O)c1ccc2c3c(cccc13)S(=O)(=O)N2C (stereo unspecified), COc1ccc(NC(=O)[C@H](Cc2ccccc2)Nc2cc(C)nc(NCCc3cccnc3)n2)cc1 is lower in IFI: 3.52% for the first, 2.38% for the second.

First: Oc1c(CNC2CCCCC2)cc(Cl)c2ccccc12
Second: CSc1nnc2n(Cc3ccccc3)c(=O)c3c(n12)-c1ccccc1CC31CCCCC1
The IFI of the first is higher: 8.53% for the first, 3.28% for the second.

First: COc1ccc(C2C(C(=O)Nc3cc(C)ccc3OC)c3ccccc3C(=O)N2C)cc1 (stereo unspecified)
Second: CNC(=O)c1cnc(Nc2ccc(OCC(O)CN(C)C)cc2)nc1Nc1cccc(OC)c1 (stereo unspecified)
The IFI of the first is lower: 1.37% for the first, 2.22% for the second.

Going from CS(=O)(=O)NCCCNCc1ccc(-c2ccc(-c3nc4cc(F)ccc4[nH]3)s2)cc1 to O=C(NCCNc1ccnc(Nc2ccc(F)cc2)n1)Nc1ccc2c(c1)OCO2, the IFI rises from 1% to 1.54%.

O=C(O)C1CC(=O)N(c2ccc(Cl)cc2)C1 (stereo unspecified) gave an IFI of 0.72%.
